Among all 110,000 compounds or so, about 230 (0.21%) showed an effect of 50% or more. The list shows a part of the results.
Biological target: DPAP1 (Plasmodium falciparum, UniProt Q8IIJ9)
Assay: primary screen, percent inhibition; read by cleavage of a fluorogenic dipeptide substrate; higher = more effect of the substance
Parameters: species or system P. falciparum D10 trophozoite lysates; single well
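Note: 30 min substrate incubation versus DMSO and 10 µM JCP410 controls.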

Chain of DPAP1 (Q8IIJ9 whole entry, looked up): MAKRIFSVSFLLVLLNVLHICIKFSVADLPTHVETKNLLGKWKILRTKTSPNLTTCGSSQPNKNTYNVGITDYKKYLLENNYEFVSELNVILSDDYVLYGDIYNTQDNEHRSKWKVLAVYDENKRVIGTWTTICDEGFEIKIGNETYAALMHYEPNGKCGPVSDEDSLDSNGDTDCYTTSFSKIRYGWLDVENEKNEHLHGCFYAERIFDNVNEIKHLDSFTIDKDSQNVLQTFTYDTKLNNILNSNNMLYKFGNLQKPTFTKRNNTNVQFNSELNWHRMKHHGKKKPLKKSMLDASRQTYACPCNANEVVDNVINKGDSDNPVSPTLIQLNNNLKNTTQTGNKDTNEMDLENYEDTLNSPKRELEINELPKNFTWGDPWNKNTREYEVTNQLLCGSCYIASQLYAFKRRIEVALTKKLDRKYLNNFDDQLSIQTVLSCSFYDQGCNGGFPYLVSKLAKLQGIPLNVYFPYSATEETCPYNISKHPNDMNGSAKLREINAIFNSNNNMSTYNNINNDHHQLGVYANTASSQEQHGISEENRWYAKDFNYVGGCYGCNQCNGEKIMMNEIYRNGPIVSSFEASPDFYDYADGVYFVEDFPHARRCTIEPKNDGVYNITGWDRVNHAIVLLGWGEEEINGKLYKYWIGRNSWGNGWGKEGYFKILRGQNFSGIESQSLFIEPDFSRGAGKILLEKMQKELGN

Row | Structure (SMILES) | % Inhibition @ 10 uM [%]
1 | CC(=O)N1CCC(N2CCCN(C)CC2)CC1 | 0.273
2 | CC(/C=c1\sc2nc3ccccc3n2c1=O)=C\c1ccco1 | 2.03
3 | CC(=O)Nc1ccc(NC(=O)c2sc3ccccc3c2Cl)cc1 | -4.76
4 | C=Cc1ccc(Cn2c(C(=O)O)c(CNCCc3ccc(C)cc3)c3ccccc32)cc1 | -5.05
5 | CCN(CC)c1ccc(/C=C2/NC(=O)N(Cc3cccc(C)c3)C2=O)c(OC)c1 | -1.98
6 | CC(C)CCNC(=O)C1CCN(c2ncnc3c2nc2n3CCCCC2)CC1 | 5.49
7 | NC(=O)c1c(NC(=O)c2cc(F)c(F)cc2Cl)sc2c1CCCC2 | 4.02
8 | COc1ccc2oc(C(O)c3c(C)oc4ccc(OC)cc34)cc2c1 (stereo not drawn) | -10.4
9 | CCOc1ccc(C2=CSC3=NCCN23)cc1 | 4
10 | Cc1nc(-c2cccc(Cl)c2)cs1 | -5.98
11 | O=C(O)C1CCN(C(=O)NC2CCCCC2)CC1 | -5.92
12 | Cc1ccc2nc(N(CCCN(C)C)C(=O)C3CCCCC3)sc2c1 | -8.09
13 | CC(=O)c1cccc(NC(=O)COc2cc(C)ccc2C)c1 | -2.8
14 | COc1ccccc1NC(=O)C(C)N1C(=O)c2ccccc2C1=O (stereo not drawn) | -2.59
15 | O=C(O)C1CCCCC1C(=O)N1CCN(C(c2ccccc2)c2ccccc2)CC1 (stereo not drawn) | 2.32
16 | COc1ccc(CNC(=O)C2CCCN(S(=O)(=O)c3c(C)noc3/C=C/N(C)C)C2)cc1 (stereo not drawn) | -4.69
17 | CCc1c(-c2ccccc2)nc2ccccc2c1C(=O)N1CCOCC1 | -2.26
18 | Cc1ccc(OC(C)C(=O)Nc2cccnc2Cl)cc1 (stereo not drawn) | 0.331
19 | O=C(O)CCCn1cc(NC(=O)c2cc3ccccc3oc2=O)cn1 | -1.24
20 | Nc1nc(-c2ccc(F)cc2F)cs1 | -2.97
21 | CC1(C)CC(n2c(SCc3ccccc3)nc3ccccc3c2=O)CCO1 (stereo not drawn) | -12.7
22 | COc1cc(C2CC(=O)NC3=C2C(=O)CCC3)ccc1OCc1ccccc1 (stereo not drawn) | 11.4

Row | Structure (SMILES) | % Inhibition @ 10 uM [%]
23 | CCC1CCc2c(n(C)c3ccccc3c2=O)O1 (stereo not drawn) | -6.48
24 | CCOC(=O)c1[nH]c2ccccc2c1NC(=O)/C=C/c1ccc2c(c1)OCO2 | 5.4
25 | Cc1nn(-c2ccccc2)c2c1C(c1cccnc1)C(C#N)=C(N)O2 (stereo not drawn) | 0.878
26 | CCc1nc2ccc(C(=O)NCCc3c[nH]cn3)cc2nc1CC | 1.63
27 | CCOc1ccc(NC(=O)c2cnn(-c3ccccc3)c2NC(=O)c2ccccc2F)cc1 | -0.28
28 | COc1ccc(C2(C)SC(NC(C)=O)=NN2C(C)=O)cc1 (stereo not drawn) | 0.431
29 | O=C(c1ccc2c(c1)OCO2)N1CCCN(C(=O)c2ccc3c(c2)OCO3)CC1 | 2.17
30 | Cc1ccc(S(=O)(=O)Nc2ccc(-c3cn4ccsc4n3)cc2)cc1 | 1.37
31 | COc1ccc2[nH]cc(CCNCCNCCS)c2c1 | 0.00178
32 | O=C(CSc1nc2ccsc2c(=O)n1CCc1ccc(Cl)cc1)Nc1nccs1 | 4.02
33 | COCCNC(=O)C1=CC(c2ccco2)=NS(=O)(=O)N1C | -4.68
34 | O=C(N[C@@H](Cc1ccccc1)C(=O)O)c1cccnc1 | -2.83
35 | Cc1cc(N2CCN(c3cc(C)nc(C)c3)CC2)cc(C)n1 | -8.28
36 | O=C(Nc1ccc(-c2nc3ccccc3[nH]2)cc1)c1cccs1 | -1.82
37 | Cc1ccccc1-c1nc(CS(=O)(=O)CC(=O)NC(C)CCc2ccccc2)c(C)o1 (stereo not drawn) | 1.55
38 | CNC(=O)c1ccc(N2CCN(CCO)CC2)nc1 | -10.2
39 | O=C(Cn1cc(S(=O)(=O)N2CCCC2)c(S(=O)(=O)N2CCCC2)c1)NCc1ccco1 | -3
40 | CC(C)Oc1ccc(Cc2c(O)nc(O)nc2O)cc1 | 5.29
41 | Cc1ccc(NC(=O)c2cc3c(=O)n4cccc(C)c4nc3n2C)cc1 | -1.42
42 | CCOC(=O)C1C(=O)NCC2CCCC21 (stereo not drawn) | -8.85
43 | CCC(=O)Nc1nonc1-c1nc2ccccc2n1C | 2.03
44 | CC(=O)c1c(C)nc(C)nc1NC(=O)C(C)C | 3.25

Row | Structure (SMILES) | % Inhibition @ 10 uM [%]
45 | CC1CCN(C(=O)COc2ccc(Br)cc2)CC1 | 2.45
46 | COc1ccc(Cl)cc1NC(=O)C1CCN(S(=O)(=O)c2c(C)cc(C)cc2C)CC1 | -4.43
47 | CC1=C(C)CC2C(=O)N(c3ccc(C(F)(F)F)cc3)C(=O)C2C1 (stereo not drawn) | -2.78
48 | Cc1cccc(C(=O)Nc2ncc(CN3CCOCC3)s2)c1 | 4.08
49 | Cc1[nH]c2ccccc2c1CCNC(=O)COc1c(F)c(F)cc(F)c1F | 2.67
50 | CC(=O)/N=C(\Nc1nc(C)cc(C)n1)Nc1ccc(C)cc1Cl | 3.12
51 | CC(=O)N(C)c1ccc(NC(=O)C(F)(F)F)cc1 | -0.0369
52 | COc1cc(/C=C/c2nc(C#N)c(N3CC(C)OC(C)C3)o2)cc(OC)c1OC (stereo not drawn) | -0.808
53 | Cc1nc2c(-c3ccccc3)c(C)nn2c(C)c1CC(=O)N1CCC(C(N)=O)CC1 | -4.24
54 | Cc1nn(Cc2ccccc2)c(C)c1NC(=O)c1ccccc1Br | -7.69
55 | Brc1ccc(Br)c2cnccc12 | 0.279
56 | COc1cccc(-c2nnc(SCC(=O)Nc3cc(=O)n(C)c(=O)n3C)n2C)c1 | -2.19
57 | Cc1coc2c(C)c3oc(=O)c(CCC(=O)N4CCOCC4)c(C)c3cc12 | 4.13
58 | Brc1ccccc1OCCCCCCN1CCOCC1 | 3.35
59 | CCc1nc2ccccc2n1Cc1ccccc1F | 1.12
60 | CC(C)Cc1nn2c(O)cc(=O)nc2s1 | -3.85
61 | Cc1cc(NC(=O)c2ccc3c(c2)c(C)c(C)n3Cc2ccccc2)no1 | 2.95
62 | O=c1nc2n(c(O)c1C(c1ccc(Cl)cc1)c1c(O)nc3n(c1=O)CCCS3)CCCS2 (stereo not drawn) | 2.51
63 | COc1ccc(-c2c(C)nn3c(-c4ccc(Cl)cc4)cc(C)nc23)cc1OC | -3.48
64 | CCc1nn(-c2cc(Oc3ccccc3)ncn2)c(N)c1C(N)=O | 0.686
65 | O=C(Nc1ccc(F)cc1)c1cccc2ccccc12 | 4.6
66 | Cc1ccc(C(=O)N2CCN(c3ncccn3)CC2)cc1 | 3.48

From paper PMC6919601, “Identification of Plasmodium dipeptidyl aminopeptidase allosteric inhibitors by high throughput screening” (PLoS ONE, 2019)
